# Hit rate of the full screen: of about 390,000 compounds, about 4,000 (1%) were called active. Inconclusive means that the source gave no clear call. Such entries were picked first, then a sample of the others. Calls follow the shape of the dose curve; as a rule, active = well fitted inhibition curve with a large enough effect; inconclusive = small, poorly fitted or top-dose-only effect; inactive = no such curve, though single readings can be large or run the other way. Potencies of inconclusive entries are doubtful fits and often do not repeat.
# Target: Thioredoxin reductase 1, cytoplasmic (Rattus norvegicus) (UniProt O89049)
# Test: qHTS Assay for Inhibitors of Mammalian Selenoprotein Thioredoxin Reductase 1 (TrxR1): qHTS; also: nearly all actives have a fitted effect of over 65% in size
# Settings: recombinant rTrxR1, NADPH fluorescence consumption, selenite substrate; series mostly up to 114 µM; activity change, negative = inhibition: at the top concentration
# Method in brief: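 Rat TrxR1 (90 nM in the dispensed reagent) was pre-reduced with 400 uM NADPH for 5 min at room temperature, then incubated with compound for 15 min. After 400 uM selenite was added, NADPH fluorescence (Ex 340/Em 450 nm) was followed for 8 min.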
# % is scaled to controls: 0 for no effect and ±100 for the full control effect; potency is read from the fitted curve at half-maximal effect; tags tell the direction and shape of the fitted curve.
# Sequence of UniProt O89049 (O89049 whole entry, looked up): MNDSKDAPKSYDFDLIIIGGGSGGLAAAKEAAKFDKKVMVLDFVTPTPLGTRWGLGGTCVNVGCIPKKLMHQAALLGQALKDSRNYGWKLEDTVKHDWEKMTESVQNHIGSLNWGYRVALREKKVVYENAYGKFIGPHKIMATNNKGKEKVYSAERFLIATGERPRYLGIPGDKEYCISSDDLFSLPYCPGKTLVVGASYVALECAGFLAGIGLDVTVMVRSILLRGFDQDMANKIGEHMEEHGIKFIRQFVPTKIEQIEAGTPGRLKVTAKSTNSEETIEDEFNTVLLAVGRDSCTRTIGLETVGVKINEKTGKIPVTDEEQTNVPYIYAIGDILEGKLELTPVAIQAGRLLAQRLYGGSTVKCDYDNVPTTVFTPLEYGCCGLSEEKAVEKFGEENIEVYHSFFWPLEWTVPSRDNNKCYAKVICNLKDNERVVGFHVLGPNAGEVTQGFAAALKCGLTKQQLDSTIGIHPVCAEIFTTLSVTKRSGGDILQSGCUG
SMILES,"activity change, negative = inhibition",Potency
CCc1nnc(NC(=O)CSc2sc3c(O)cc(=O)[nH]c3c2C#N)s1,inactive: -20.6%,
Cc1ccc(S(=O)(=O)N2CCC(C)CC2)cc1[N+](=O)[O-],,"inconclusive: 28.2 µM [inhibitor, single point]"
CCn1c(CSc2nc(C)cc(C)n2)nnc1SCC(=O)Nc1nc(-c2ccccc2)cs1,inactive: -0.104%,
CSC1=NC(=O)/C(=C\c2cccc3ccccc23)S1,inactive: 34.5% [at 57.1 µM],
Cc1cc(=S)nc(-c2ccccn2)[nH]1,,"inconclusive: 39.8 µM [inhibitor, single point]"
O=C(COc1ccc2ccc(=O)oc2c1)N1CCN(C(=O)C2COc3ccccc3O2)CC1 (stereo unspecified),,"inconclusive: 79.4 µM [inhibitor, single point]"
CCn1c(N)c(C(=O)Nc2ccccc2C(=O)OC)sc1=S,inactive: 15.3% [at 57.1 µM],
CC(C)CS(=O)(=O)C1=NSC2=NC(=O)/C(=C\c3ccc(OC(=O)c4ccco4)cc3)C(=N)N21,,"inconclusive: 20 µM [inhibitor, full curve]"
Cc1cc(SC#N)cc(C)c1NC(=O)CCl,,active: 50.1 µM
O=C(CN1CCSCC1)N/N=C/c1ccc(F)cc1F,,"inconclusive: 8.91 µM [inhibitor, single point]"
COc1ccc(C2/C(=C(/O)c3ccccc3)C(=O)C(=O)N2CCN2CCOCC2)c(OC)c1 (stereo unspecified),,"inconclusive: 28.2 µM [inhibitor, partial curve, poor fit]"
COC(=O)C1CCN(S(=O)(=O)Cc2ccccc2)CC1,,"inconclusive: 79.4 µM [inhibitor, single point]"
CCCC/C=C1/CCC(CN(C)C)C1=O (stereo unspecified),,active: 0.631 µM
COc1ccc(C(NC(=O)COc2ccc(C#N)cc2)c2ccc(OC)cc2)cc1,inactive: 9.27%,
CC(NC(=S)NCCc1ccccc1)C(c1cccs1)N1CCN(Cc2ccccc2)CC1 (stereo unspecified),inactive: 6.21% [at 57.1 µM],
O=[N+]([O-])c1ccc(S(=O)Cc2ccccc2)c([N+](=O)[O-])c1 (stereo unspecified),,"inconclusive: 0.562 µM [inhibitor, full curve, poor fit]"
COc1cccc(-c2nc(CS(=O)CC(=O)NC(C)CCc3ccccc3)c(C)o2)c1 (stereo unspecified),,active: 28.2 µM
O=C(Nc1cccc(C(=O)O)c1)/C(=C\c1ccccc1Cl)NC(=O)c1ccco1,,"inconclusive: 79.4 µM [inhibitor, partial curve, poor fit]"
CCc1nnc(NC(=O)CSc2nc3c([nH]c4ccccc43)c(=O)n2-c2ccc(Cl)cc2)s1,inactive: 25.3% [at 57.1 µM],
CCCc1cc(NCCCN2CCOCC2)n2c(nc3ccccc32)c1C#N,,"inconclusive: 100 µM [inhibitor, single point]"
CCCOc1ccc(C(=O)CCNc2cccc(Cl)c2)cc1,,"inconclusive: 25.1 µM [inhibitor, single point]"

# — PubChem BioAssay AID588453 (National Center for Advancing Translational Sciences (NCATS), 2011)
